About 14,000 (4.5%) of roughly 310,000 compounds showed an effect of 50% or more. The effect is printed as a negative number. The list shows a part of the results.
The compounds below were run against human ether-à-go-go-related gene (hERG) potassium channel (human, UniProt Q12809) (assay: primary screen, population patch clamp on CHO cells stably expressing hERG).
Sequence of human ether-à-go-go-related gene (hERG) potassium channel (Q12809 whole entry, looked up): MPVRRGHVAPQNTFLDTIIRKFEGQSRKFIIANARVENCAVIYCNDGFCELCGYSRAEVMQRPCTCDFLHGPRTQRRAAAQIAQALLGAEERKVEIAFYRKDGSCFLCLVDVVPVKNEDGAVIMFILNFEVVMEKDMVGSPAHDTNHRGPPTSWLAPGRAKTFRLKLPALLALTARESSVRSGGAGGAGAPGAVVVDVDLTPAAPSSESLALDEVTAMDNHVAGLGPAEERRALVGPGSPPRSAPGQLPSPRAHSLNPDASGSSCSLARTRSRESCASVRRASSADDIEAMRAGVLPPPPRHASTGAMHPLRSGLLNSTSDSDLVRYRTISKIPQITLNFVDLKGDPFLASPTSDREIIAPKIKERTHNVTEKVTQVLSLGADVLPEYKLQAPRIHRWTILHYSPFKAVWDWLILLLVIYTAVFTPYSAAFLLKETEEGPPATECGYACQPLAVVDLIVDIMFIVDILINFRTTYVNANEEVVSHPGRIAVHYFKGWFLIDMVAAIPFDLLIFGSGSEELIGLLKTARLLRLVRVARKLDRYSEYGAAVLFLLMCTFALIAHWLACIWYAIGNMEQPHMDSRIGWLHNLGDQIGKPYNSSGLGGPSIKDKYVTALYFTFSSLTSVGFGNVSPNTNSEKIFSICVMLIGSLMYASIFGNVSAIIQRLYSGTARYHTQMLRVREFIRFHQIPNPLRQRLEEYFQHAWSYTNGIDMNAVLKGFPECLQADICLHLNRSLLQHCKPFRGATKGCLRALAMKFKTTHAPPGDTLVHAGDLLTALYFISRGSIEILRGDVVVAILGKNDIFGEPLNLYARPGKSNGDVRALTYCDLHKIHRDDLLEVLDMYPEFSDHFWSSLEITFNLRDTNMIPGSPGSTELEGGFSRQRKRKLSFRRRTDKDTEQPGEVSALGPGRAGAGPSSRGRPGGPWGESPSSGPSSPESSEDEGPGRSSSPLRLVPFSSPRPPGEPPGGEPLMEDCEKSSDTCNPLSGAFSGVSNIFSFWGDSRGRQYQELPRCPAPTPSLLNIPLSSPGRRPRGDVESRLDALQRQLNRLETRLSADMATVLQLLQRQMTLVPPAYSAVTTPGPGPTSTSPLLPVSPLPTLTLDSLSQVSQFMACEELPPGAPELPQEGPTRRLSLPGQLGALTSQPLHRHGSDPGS
With CN(C)CCCN(C(=O)c1ccc(S(=O)(=O)N(C)C)cc1)c1nc2cc3c(cc2s1)OCO3.Cl the “hERG current change (%, negative = inhibition) at 10uM” value was 15.5%. With O=C1c2cccc3cccc(c23)C(=O)N1/N=C/c1ccc(O)cc1O the “hERG current change (%, negative = inhibition) at 10uM” value was 7.76%. For Cc1ccc(N2CC(C(=O)OCC(=O)c3ccc(C)c([N+](=O)[O-])c3)CC2=O)cc1 (stereo not shown), the “hERG current change (%, negative = inhibition) at 10uM” value was -8.62%. In the case of O=c1c2nnn(Cc3ccccc3)c2ncn1-c1ccccc1, the “hERG current change (%, negative = inhibition) at 10uM” value is reported as 9.1%. Cc1cccc(OCC(=O)O/N=C(\N)Cc2ccc([N+](=O)[O-])cc2)c1 was tested, and the “hERG current change (%, negative = inhibition) at 10uM” value was -32.5%. With CCN1CCc2nc3ccccc3c(C(=O)Nc3ccc(C#N)cc3)c2C1 the “hERG current change (%, negative = inhibition) at 10uM” value was -71%. In the case of O=C(O)C(=O)O.O=C(c1cccc(Cl)c1)N1CCN(C2CCCCCC2)CC1, the “hERG current change (%, negative = inhibition) at 10uM” value is reported as -45.9%. In the case of Cc1nc2ccc(CN(C)c3ccc(C(=O)N[C@@H](CCC(=O)O)C(=O)O)s3)cc2c(=O)[nH]1, the “hERG current change (%, negative = inhibition) at 10uM” value is reported as 8.41%. In the case of CCc1cc(C(=O)N/N=C/c2ccc(OC)cc2)c2ccccc2n1, the “hERG current change (%, negative = inhibition) at 10uM” value is reported as -4.27%. For Cc1ccc(CNC(=O)c2ccc3c(c2)S(=O)(=O)c2ccccc2C3=O)cc1, the “hERG current change (%, negative = inhibition) at 10uM” value was -1.39%. In the case of CCc1nc(-c2ccc(-c3ccc(OC)cc3)nc2OC)no1, the “hERG current change (%, negative = inhibition) at 10uM” value is reported as 12.4%. For CCCCn1c(SCC(=O)N2CCC(C(=O)OCC)CC2)nc2cc(S(N)(=O)=O)ccc21, the “hERG current change (%, negative = inhibition) at 10uM” value was -70.7%. NS(=O)(=O)c1ccc(CCNc2ccnc3cc(Cl)ccc23)cc1 was tested, and the “hERG current change (%, negative = inhibition) at 10uM” value was -24.9%. With Cc1ccc(-n2c(-c3ccccc3)c[n+]3c2CCC3)cc1.[Br-] the “hERG current change (%, negative = inhibition) at 10uM” value was -50.7%. COC(=O)c1ccc(N2CCN(S(=O)(=O)c3ccccc3)CC2)c([N+](=O)[O-])c1 was tested, and the “hERG current change (%, negative = inhibition) at 10uM” value was -14.1%. With CCn1ncc(C2=NOC(C(=O)N3CCC(C(N)=O)CC3)C2)c1C (stereo not shown) the “hERG current change (%, negative = inhibition) at 10uM” value was -5.42%. With COc1ccc(-c2csc(-c3cccs3)n2)c(OC)c1 the “hERG current change (%, negative = inhibition) at 10uM” value was 15.8%. With CCOC(=O)c1cc2c(=O)n3ccccc3nc2n(CCCOC)c1=NC(C)=O the “hERG current change (%, negative = inhibition) at 10uM” value was -27.5%. In the case of CCOC(=O)c1c[nH]c(=S)n1C, the “hERG current change (%, negative = inhibition) at 10uM” value is reported as 21.8%. For CC(=O)Nc1ccc(S(=O)(=O)N(CC(=O)O)Cc2ccccc2)cc1, the “hERG current change (%, negative = inhibition) at 10uM” value was -12.6%. In the case of COc1ccc(C)c2sc(N(CCCN(C)C)C(=O)c3ccc4c(c3)OCCO4)nc12.Cl, the “hERG current change (%, negative = inhibition) at 10uM” value is reported as -75.6%. For CS(=O)(=O)N1CCC(C(=O)Nc2ccc3c(c2)OCCO3)CC1, the “hERG current change (%, negative = inhibition) at 10uM” value was -0.89%. For CN(C)c1ccc(/C=N/n2cnn(Cc3ccccc3Cl)c2=S)cc1, the “hERG current change (%, negative = inhibition) at 10uM” value was 24.2%. COC(=O)C1CCN(C(=O)C2CCC(=O)N(CCc3cccc(F)c3)C2)CC1 (stereo not shown) was tested, and the “hERG current change (%, negative = inhibition) at 10uM” value was -1.44%. With Cc1cc(O)c(NC(=O)c2cccc([N+](=O)[O-])c2)cc1C the “hERG current change (%, negative = inhibition) at 10uM” value was 7.25%. With CCOP(=O)(OCC)C1(O)C(=O)Nc2ccc(Br)cc21 (stereo not shown) the “hERG current change (%, negative = inhibition) at 10uM” value was -4.13%. In the case of CC1CCN(c2c(NCC3CCC(C(=O)N4CCCC(C)C4)CC3)c(=O)c2=O)CC1 (stereo not shown), the “hERG current change (%, negative = inhibition) at 10uM” value is reported as 2.75%. In the case of CC(NC(=O)COC(=O)/C=C/c1ccc(Cl)cc1)c1ccccc1 (stereo not shown), the “hERG current change (%, negative = inhibition) at 10uM” value is reported as 18.7%. CCc1cccc2c(C#N)cn(CC(=O)NCc3ccco3)c12 was tested, and the “hERG current change (%, negative = inhibition) at 10uM” value was 13.5%. For CCOC(=O)c1c(NC(=O)CN2C(=O)C(=O)N(CC(C)C)C2=O)sc(C)c1CC, the “hERG current change (%, negative = inhibition) at 10uM” value was 12.6%. With CC1=Nc2ccccc2N=C(NC(=O)/C=C/C(=O)O)C1c1ccccc1 (stereo not shown) the “hERG current change (%, negative = inhibition) at 10uM” value was 2.53%. With COc1ccc(N(CC(=O)NCc2ccncc2)S(=O)(=O)c2ccc(C)c([N+](=O)[O-])c2)cc1 the “hERG current change (%, negative = inhibition) at 10uM” value was -50.9%. CCC1=NN(C(=O)COc2ccccc2)C(O)(c2ccncc2)C1 (stereo not shown) was tested, and the “hERG current change (%, negative = inhibition) at 10uM” value was 19.5%. Cc1nc2ccccc2c(=O)n1NC(=O)C1CC1C (stereo not shown) was tested, and the “hERG current change (%, negative = inhibition) at 10uM” value was 6.2%. O=C(C1COc2ccccc2O1)N1CCn2c(nc3ccccc32)C1 (stereo not shown) was tested, and the “hERG current change (%, negative = inhibition) at 10uM” value was -29.6%. CCc1nc(N2CCN(C(=O)CCl)CC2)c2c3c(sc2n1)CC(C)CC3 (stereo not shown) was tested, and the “hERG current change (%, negative = inhibition) at 10uM” value was -21.2%. In the case of CC(C)n1cnc2c(NCc3ccc(S(N)(=O)=O)cc3)nc(NCc3ccc(S(N)(=O)=O)cc3)nc21, the “hERG current change (%, negative = inhibition) at 10uM” value is reported as 10.2%. With CCOC(=O)C1=C(CN2CCN(C(=O)c3ccco3)CC2)NC(=O)NC1c1ccccc1 (stereo not shown) the “hERG current change (%, negative = inhibition) at 10uM” value was -43.7%. COc1ccc(S(=O)(=O)NCCN2CCNC2=O)cc1OC was tested, and the “hERG current change (%, negative = inhibition) at 10uM” value was 9.1%. CC(=O)N1c2ccc(S(=O)(=O)NCC3CCC(C(=O)N4CCC(C)CC4)CC3)cc2CC1C (stereo not shown) was tested, and the “hERG current change (%, negative = inhibition) at 10uM” value was 11.3%. O=[N+]([O-])c1ccc(Cc2nnc(-c3ccccc3Cl)o2)cc1 was tested, and the “hERG current change (%, negative = inhibition) at 10uM” value was -15.5%. For O=C(NC(Cc1ccccc1)C(=O)O)/C(=C\c1ccc(F)cc1)NC(=O)c1ccco1 (stereo not shown), the “hERG current change (%, negative = inhibition) at 10uM” value was 13.9%. O=C(NCC1CCCN1S(=O)(=O)c1cccs1)C(=O)Nc1ccc(F)cc1F (stereo not shown) was tested, and the “hERG current change (%, negative = inhibition) at 10uM” value was -22.4%.
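Further: peak tail current of the secondary pulse compared with the same well before compound.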
